The supplement of paper PMC6089552
Screen size: about 3,200 compounds; about 300 (9.4%) showed activity. Only a part is listed here, and it is no random draw.

Tested on: A673/TR/shEF
Assay: cell viability (LOESS-normalised, relative to median of negative controls) (log2 ratio); higher = more viable cells (less compound effect), active = hit call of the paper (over 3 MAD below the median)
Conditions: treatment time: 72 h
Procedure, shortened: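 A673/TR/shEF Ewing sarcoma cells (1,500 per well, 384-well plates) were grown with or without doxycycline to induce EWS-FLI1 shRNA knockdown, starting 24 h before compounds. Library compounds at two or more concentrations, with DMSO controls, were added for three days. Cell viability was read by CellTiter-Glo luminescence on an Envision reader, then LOESS-corrected per plate, divided by the median of negative controls and log2-transformed. Hits were wells at least three median absolute deviations from the median of all screened wells.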

[1] = 0.25 µM, library screen: screen2, EWS-FLI1 expression: high (no doxycycline)
[2] = 0.25 µM, library screen: screen2, EWS-FLI1 expression: low (doxycycline-induced shRNA knockdown)
[3] = 2.5 µM, library screen: screen2, EWS-FLI1 expression: high (no doxycycline)
[4] = 2.5 µM, library screen: screen2, EWS-FLI1 expression: low (doxycycline-induced shRNA knockdown)
[5] = 0.25 µM, library screen: screen1, EWS-FLI1 expression: high (no doxycycline)
[6] = 0.25 µM, library screen: screen1, EWS-FLI1 expression: low (doxycycline-induced shRNA knockdown)
[7] = 2.5 µM, library screen: screen1, EWS-FLI1 expression: high (no doxycycline)
[8] = 2.5 µM, library screen: screen1, EWS-FLI1 expression: low (doxycycline-induced shRNA knockdown)
[9] = 0.103 µM, library screen: screen3, EWS-FLI1 expression: high (no doxycycline)
[10] = 0.103 µM, library screen: screen3, EWS-FLI1 expression: low (doxycycline-induced shRNA knockdown)
[11] = 0.308 µM, library screen: screen3, EWS-FLI1 expression: high (no doxycycline)
[12] = 0.308 µM, library screen: screen3, EWS-FLI1 expression: low (doxycycline-induced shRNA knockdown)
[13] = 0.926 µM, library screen: screen3, EWS-FLI1 expression: high (no doxycycline)
[14] = 0.926 µM, library screen: screen3, EWS-FLI1 expression: low (doxycycline-induced shRNA knockdown)
[15] = 2.8 µM, library screen: screen3, EWS-FLI1 expression: high (no doxycycline)
[16] = 2.8 µM, library screen: screen3, EWS-FLI1 expression: low (doxycycline-induced shRNA knockdown)
[17] = 8.3 µM, library screen: screen3, EWS-FLI1 expression: high (no doxycycline)
[18] = 8.3 µM, library screen: screen3, EWS-FLI1 expression: low (doxycycline-induced shRNA knockdown)
[19] = 25 µM, library screen: screen3, EWS-FLI1 expression: high (no doxycycline)
[20] = 25 µM, library screen: screen3, EWS-FLI1 expression: low (doxycycline-induced shRNA knockdown)

Measured: cell viability (log2)

CC(=O)SCC[N+](C)(C)C
inactive: [1] -0.0322 | [2] 0.039 | [3] -0.0265 | [4] 0.0874

CCCCOC(=O)c1ccc(N)cc1
inactive: [5] 0.101 | [6] 0.027 | [7] 0.144 | [8] 0.0774

CC(C)C[C@H](NC(=O)[C@H]1O[C@@H]1C(=O)O)C(=O)NCCCCN=C(N)N
inactive: [1] 0.159 | [2] 0.0497 | [3] 0.101 | [4] 0.0758

CCCCCCc1ccc(O)cc1O
inactive: [5] 0.131 | [6] 0.0469 | [7] 0.139 | [8] 0.145

CC1(C)NC(=O)N(c2ccc([N+](=O)[O-])c(C(F)(F)F)c2)C1=O
inactive: [5] 0.0999 | [6] 0.0399 | [1] 0.127 | [2] 0.0979 | [7] 0.113 | [8] 0.0337 | [3] 0.112 | [4] 0.0983

C=C1CC[C@@H]2[C@H](CC2(C)C)C(=O)CC[C@@H]1O
inactive: [5] 0.0475 | [6] 0.00133 | [7] 0.0814 | [8] 0.0623

COC(=O)[C@@H]1[C@H]2C[C@H]3c4[nH]c5ccccc5c4CCN3C[C@@H]2CC[C@@H]1O
inactive: [5] 0.0728 | [6] 0.0586 | [1] 0.128 | [2] 0.0502 | [7] 0.139 | [8] 0.126 | [3] 0.196 | [4] 0.126

CCC(C)n1ncn(-c2ccc(N3CCN(c4ccc(OC[C@H]5CO[C@](Cn6cncn6)(c6ccc(Cl)cc6Cl)O5)cc4)CC3)cc2)c1=O (stereo not given in full)
inactive: [9] -0.00587 | [10] -0.0322 | [11] 0.0158 | [12] 0.0366 | [13] 0.0942 | [14] 0.0808 | [15] 0.0248 | [16] 0.0437 | [17] -0.13 | [18] 0.0912 | [19] 0.0658 | [20] 0.11

COC(=O)C[C@H]1C(C)(C)C(=O)[C@@H]2CC3=C4CC(=O)O[C@@H](c5ccoc5)[C@]4(C)CC[C@@H]3[C@@]1(C)C2=O
inactive: [5] 0.0642 | [6] 0.0645 | [7] 0.101 | [8] 0.103

COc1ccc(C(=O)CC(=O)O)c2c1C=CC(C)(C)O2
inactive: [5] -0.00754 | [6] -0.0232 | [7] 0.0962 | [8] 0.0419

CC(=O)O.CC(=O)O.[Cd]
inactive: [5] 0.129 | [6] -0.0033 | [7] 0.0042 | [8] -0.0745

C[C@@H](NC(=O)/C(C#N)=C/c1ccc(O)c(O)c1)c1ccccc1
inactive: [1] 0.139 | [2] -0.0177 | [3] 0.152 | [4] 0.00798

Cc1cn2c(=O)c3ccccc3nc2nc1Nc1ccccc1C(=O)O
inactive: [5] 0.138 | [6] 0.0987 | [7] 0.0749 | [8] 0.0532

COc1ccc2cc1Oc1ccc(cc1)C[C@H]1c3cc(c(OC)cc3CCN1C)Oc1c(OC)c(OC)cc3c1[C@H](C2)N(C)CC3
inactive: [5] 0.12 | [6] 0.189 | [7] 0.0802 | [8] 0.184

O=C1CCc2cc(OCCCCc3nnnn3C3CCCCC3)ccc2N1
inactive: [9] 0.129 | [10] 0.114 | [1] 0.102 | [2] 0.07 | [11] 0.102 | [12] 0.0804 | [13] 0.0992 | [14] 0.0606 | [3] 0.106 | [4] 0.0622 | [15] 0.092 | [16] 0.0616 | [17] 0.0747 | [18] -0.00245 | [19] 0.072 | [20] 0.113

CCS(=O)(=O)CCn1c([N+](=O)[O-])cnc1C
inactive: [5] 0.0677 | [6] 0.0867 | [7] 0.12 | [8] 0.0978

CCCCOc1cc(C(=O)NCCN(CC)CC)c2ccccc2n1
inactive: [5] 0.151 | [6] 0.163 | [7] 0.226 | [8] 0.143

O=P(O)(O)C(Cl)(Cl)P(=O)(O)O
inactive: [1] 0.206 | [2] 0.0911 | [3] 0.127 | [4] 0.1

CCN1C(=O)/C(=C\c2cn(CCC#N)nc2-c2ccc(F)cc2)SC1=S
inactive: [5] 0.0868 | [6] 0.118 | [7] 0.107 | [8] -0.0141

CC(C)(C)OC(=O)C(C)(N)c1ccc(Cl)cc1 (stereo not given)
inactive: [1] 0.157 | [2] 0.0841 | [3] 0.151 | [4] 0.141

CC1=C(C(=O)OC2CCCC2)C(c2coc3ccccc3c2=O)C2=C(CC(C)(C)CC2=O)N1 (stereo not given)
inactive: [5] 0.0783 | [6] 0.0738 | [7] 0.145 | [8] 0.0146

C=C1C(=O)O[C@@H]2C[C@@]3(C)CCC[C@H](C)C3=C[C@H]12
inactive: 0.025 µM, library screen: screen2, EWS-FLI1 expression: high (no doxycycline) 0.148 | 0.025 µM, library screen: screen2, EWS-FLI1 expression: low (doxycycline-induced shRNA knockdown) 0.0581 | [5] 0.0724 | [6] -0.00207 | [1] 0.177 | [2] 0.0288 | [7] 0.152 | [8] 0.0584 | [3] 0.0901 | [4] 0.000642 | 25 µM, library screen: screen2, EWS-FLI1 expression: high (no doxycycline) -0.0554 | 25 µM, library screen: screen2, EWS-FLI1 expression: low (doxycycline-induced shRNA knockdown) -0.102

OCc1cc(C(O)CNCCCCCCOCCCCc2ccccc2)ccc1O (stereo not given)
inactive: [1] 0.0817 | [2] 0.00254 | [3] 0.125 | [4] 0.0466

C#CCN1C(C)=C(C(=O)OC)C(c2cccc([N+](=O)[O-])c2)C(C(=O)OCC)=C1C (stereo not given)
inactive: [1] 0.0669 | [2] 0.0672 | [3] 0.0849 | [4] 0.179

CC(=O)OCC(=O)[C@@]12N=C(C)O[C@@H]1C[C@H]1[C@@H]3CCC4=CC(=O)C=C[C@]4(C)[C@H]3[C@@H](O)C[C@@]12C
inactive: [9] 0.114 | [10] -0.0782 | [11] 0.116 | [12] 0.0535 | [13] 0.0398 | [14] 0.0599 | [15] 0.0606 | [16] 0.106 | [17] 0.109 | [18] 0.0725 | [19] 0.0446 | [20] 0.128

C=C1c2c(Cl)ccc(O)c2C(O)=C2C(=O)[C@]3(O)C(O)=C(C(N)=O)C(=O)[C@@H](N(C)C)[C@@H]3[C@@H](O)[C@H]12.O=C(O)c1cc(S(=O)(=O)O)ccc1O
active: [5] -0.128 | [7] -0.126
inactive: [6] 0.0882 | [8] 0.0927

CNCCC(Oc1ccc(C(F)(F)F)cc1)c1ccccc1 (stereo not given)
inactive: [9] 0.0657 | [10] 0.074 | [5] 0.199 | [6] 0.0653 | [1] 0.168 | [2] 0.061 | [11] 0.158 | [12] 0.0915 | [13] 0.127 | [14] 0.0928 | [7] 0.117 | [8] 0.121 | [3] 0.107 | [4] 0.0684 | [15] 0.106 | [16] 0.0514 | [17] 0.138 | [18] 0.0456 | [19] -0.00243 | [20] 0.102

Cc1nc2n(c(=O)c1CCN1CCC(c3noc4cc(F)ccc34)CC1)CCCC2
inactive: [9] 0.122 | [10] 0.0679 | [1] 0.0834 | [2] 0.0805 | [11] 0.0952 | [12] 0.118 | [13] 0.0358 | [14] 0.121 | [3] 0.16 | [4] 0.0814 | [15] 0.0509 | [16] 0.0563 | [17] 0.0819 | [18] 0.0474 | [19] 0.0967 | [20] 0.0689

C[C@@H](CN1CC(=O)NC(=O)C1)N1CC(=O)NC(=O)C1
inactive: [9] 0.159 | [10] 0.0755 | [11] 0.137 | [12] 0.0259 | [13] 0.142 | [14] 0.0579 | [15] 0.0229 | [16] 0.0634 | [17] 0.0222 | [18] 0.0663 | [19] 0.081 | [20] 0.122

CCCCCCCCCCCCC[N+](C)(C)Cc1ccccc1
inactive: [5] 0.0353 | [6] -0.0172 | [7] -0.0798 | [8] -0.173

CCCCCCCCCCC/C=C\C(C)(C)/C=C\CCCC(=O)O
inactive: [1] 0.118 | [2] 0.019 | [3] 0.139 | [4] 0.121

CCOc1ccccc1OCCN[C@H](C)Cc1ccc(OC)c(S(N)(=O)=O)c1
inactive: [9] 0.0525 | [10] 0.0533 | [11] 0.126 | [12] 0.0736 | [13] 0.134 | [14] 0.0525 | [15] 0.0143 | [16] 0.0472 | [17] -0.00938 | [18] 0.0323 | [19] 0.146 | [20] 0.0928

CCn1cc(C(=O)O)c(=O)c2cnc(N3CCCC3)nc21
inactive: [5] 0.172 | [6] 0.12 | [7] 0.205 | [8] 0.191

CC(C)[N+]1(C)C2CCC1CC(OC(=O)C(CO)c1ccccc1)C2 (stereo not given)
inactive: [9] 0.111 | [10] 0.106 | [5] 0.0971 | [6] 0.11 | [1] 0.19 | [2] -0.00964 | [11] 0.125 | [12] 0.138 | [13] 0.121 | [14] 0.138 | [7] 0.137 | [8] 0.0832 | [3] 0.099 | [4] 0.165 | [15] 0.117 | [16] 0.117 | [17] 0.127 | [18] 0.0463 | [19] 0.148 | [20] 0.129
